In the supplement of paper PMC7125110:
± gives the standard error. This sample is rich in variants without activity.

B1: glmS ribozyme (parent)
chain: AUAAAAGCGCCAGAACUACAGAAAUGUAGUUGACGAGGAGGAGGUUUAUCGAAUUUUCGGCGGAUGCCUCCAAA

Legend:
Settings in all cases: with glucosamine-6-phosphate
glucosamine-6-phosphate [1] = variants of: B1; test: self-cleavage kobs at 640 uM GlcN6P; higher = faster cleavage; RNA array
Procedure, shortened: (§1)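 Glucosamine-6-phosphate, from 40 μM to 10 mM in HEPES/KCl/Mg(OAc)2 buffer, was flowed over sequenced MiSeq chips carrying barcoded ribozyme variants transcribed in situ by E. coli RNA polymerase. A hybridised Cy3 probe tracked the variants at 37 °C as tiles were imaged over ~14 h. kobs, kcat and KM were obtained by fitting normalised per-tile medians to exponential decays and then applying weighted Michaelis–Menten fits across concentrations.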

glucosamine-6-phosphate [2] = variants of: B1; test: self-cleavage kobs at 2500 uM GlcN6P; higher = faster cleavage; RNA array
Procedure, shortened: as §1

glucosamine-6-phosphate [3] = variants of: B1; test: self-cleavage kobs at 10000 uM GlcN6P; higher = faster cleavage; RNA array
Procedure, shortened: as §1

glucosamine-6-phosphate [4] = variants of: B1; test: self-cleavage kobs at 160 uM GlcN6P; higher = faster cleavage; RNA array
Procedure, shortened: as §1

Variant | self-cleavage kobs at 640 uM GlcN6P (glucosamine-6-phosphate [1]) [s⁻¹] | self-cleavage kobs at 2500 uM GlcN6P (glucosamine-6-phosphate [2]) [s⁻¹] | self-cleavage kobs at 10000 uM GlcN6P (glucosamine-6-phosphate [3]) [s⁻¹] | self-cleavage kobs at 160 uM GlcN6P (glucosamine-6-phosphate [4]) [s⁻¹]
AUAAAAGCGCCUGAACUACAGAAAUGUAGUUGACGAAGAGGAGGUUUAUCGAAUUUUCGGCUGAUGCCUCCAAA [A12U G37A G62U] | < 1e-05 | < 1e-05 | – | –
AUAAAAGCGCCUGAACUACAGAAAUGUAGUUGACGAGGCGGAGGUUUAUCGAAUUUUCGGCUGAUGCCUCCAAA [A12U A39C G62U] | < 1e-05 | – | < 1e-05 | –
AUAAAAGCGCCAAAAGUACAGAAAUGUAGUUGACGCGGAGUAGGUUUAUCGUAUUUUCGGCGGAUGCCUCCAAA [G13A C16G A36C G41U A52U] | < 1e-05 | – | – | –
AUAAAAGCGCCUGAACUACAGAAAUGUAGUUGACGAGGAGGAGGUUUAACGAAUUUUCUGCGGAUGCCUCCAAA [A12U U49A G59U] | < 1e-05 | < 1e-05 | – | –
AUAAAAGCGCCUGACCUACAGAAAUGUAGUUGACGAGUAGGAGGUUUAUCGAAUUUUCGGCGGAUGCCUCCAAA [A12U A15C G38U] | < 1e-05 | – | – | < 1e-05
AUAAAAGCGCCAUAACUACAGAAAUGUAGUUGACGAGGAGGAGGUUUAUUCAAUUUUCGGCGGAUGCCUCCAAA [G13U C50U G51C] | < 1e-05 | – | – | –
AUAAAAGCGCCACAACUACAGAAAUGUAUUUGACGAGGAGUAGGUUUAUCGAAUUUUCGGCGGAUGCAUACAAA [G13C G29U G41U C68A C70A] | < 1e-05 | – | – | –
AUAAAAGCGCCAAAACUACAGAAAUGUAGUUGACGACGAGGAGGUUUAUCGAAUUUUGGGCGGAUGCCUCCAAA [G13A G37C C58G] | < 1e-05 | < 1e-05 | – | –
AUAAAAGCGCCAUAACUACAGAAAUGUAAUUGACGAGGAGGAGGUUUAUCGAAUUUUCGGCGGAUGCCUCCAAA [G13U G29A] | 3.19e-05 ± 1.3e-05 | 0.000121 ± 2.2e-05 | 0.000246 ± 4.2e-05 | –
AUAAAAGCGCCUGAACUACAGAAAUGUAGUUGACGAGGAGGAGGUUUAUCGAAUUUUCGACGGAUGCCUCCAAA [A12U G60A] | 2.88e-05 ± 1.4e-05 | 4.12e-05 ± 1e-05 | 7.02e-05 ± 8.4e-06 | –
AUAAAAGCGCCUGAACUACAGAAAUGUAGUUGACGAGGAGGAGGUUUAGCGAAUUUUAGGCGGAUGCCUCCAAA [A12U U49G C58A] | < 1e-05 | – | – | –
AUAAAAGCGCCAUAUCUACAGAAAUGUAGUUGACGAGGAGGAGGUUUGUCGAAUAUUCGGCGGAUGCCUCCAAA [G13U A15U A48G U55A] | < 1e-05 | – | – | –
AUAAAAGCGCCUGAACUACAGAAAUGUAGUUGACGAGGAGGAGGUUUAUCGAAUUUUCGGCGGAUGUCUCGAAA [A12U C67U C71G] | 7.19e-05 ± 2.7e-05 | 6.07e-05 ± 1.3e-05 | 4.02e-05 ± 2e-05 | –
AUAAAAGCGCCUGAAAUACAGAAAUGUAGUUGAAGAGGAGGAGGUUUAUCGAUUUUUCGGCGGAUGUCUCCAAA [A12U C16A C34A A53U C67U] | < 1e-05 | < 1e-05 | – | –
AUAAAAGCGCCUGAACUACAGAAAUGUAGUUGACGAGGAGGAGGUUUCUCGAAUUUUCGGCGGAUGCCUCCAAA [A12U A48C] | 0.000142 ± 2.1e-05 | 0.000341 ± 5.1e-05 | – | –
AUAAAAGCGCCUGAACUACAGAAAUGUAGUUGACGAGGAGGAGGUUUAUCGAACUUUCGGCUGAUGCCUCCAAA [A12U U54C G62U] | < 1e-05 | – | – | –
AUAAAAGCGCCUGAACUACAGAAAUGUAGUUCACGAGGACGAGGUUUAUCGAAUUUUCGGCGGAUGCCUCCAAA [A12U G32C G40C] | < 1e-05 | < 1e-05 | – | –
AUAAAAGCGCCACAACUACAGAAAUGUAGUUGACGAGGACGCGGUUUAUCGAAUUUUCGGCGGAUGCCUCCAAA [G13C G40C A42C] | < 1e-05 | < 1e-05 | – | –
AUAAAAGCGCCAUAACUACAGAAAUGUAGUUGACGAGGAGGAGGUUUCUCGAAUUUUCUGCGGAUUCCUCCAAA [G13U A48C G59U G66U] | < 1e-05 | – | – | –
AUAAAAGCGCCUGAACUACAGAAAUGUAGUUGACGAGGAGCAGGUUUAUCAAAUUUUCGGCGGAUGCCUCCAAA [A12U G41C G51A] | < 1e-05 | < 1e-05 | < 1e-05 | –
AUAAAAGCGCCUGAACUACAGAAAUGUAGUUGACGAGGCGGUGGAUUAUCGAAUUUACGGCGGAUGCCUCCAAA [A12U A39C A42U U45A U57A] | < 1e-05 | – | – | < 1e-05

Variant | self-cleavage kobs at 640 uM GlcN6P (glucosamine-6-phosphate [1]) [s⁻¹] | self-cleavage kobs at 2500 uM GlcN6P (glucosamine-6-phosphate [2]) [s⁻¹] | self-cleavage kobs at 10000 uM GlcN6P (glucosamine-6-phosphate [3]) [s⁻¹] | self-cleavage kobs at 160 uM GlcN6P (glucosamine-6-phosphate [4]) [s⁻¹]
AUAAAAGCGCCUGAACUACAGAAAUGUAGUUGACGAGGAGGAGGUUUAUCGAAUUUUCGGAUGAUGCCUCCAAA [A12U C61A G62U] | < 1e-05 | – | – | –
AUAAAAGCGCCAUGACUACAGAAAUGUACGUCACGAGGAGGAGGUUUAUCGAAUUCUCGGCGGAGGCCUCCAAA [G13U A14G G29C U30G G32C U56C U65G] | < 1e-05 | – | – | –
AUAAAAGCGCCAAAACUACAGAAAUGUAGUUGGCGAGGAGGAGAUUUAUCGAAUUUUCGACGGAUGCCUCCAAA [G13A A33G G44A G60A] | < 1e-05 | – | < 1e-05 | –
AUAAAAGCGCCAUAACUACAGAAAUGUAGUUGACGAGGAGGCGCUUUAUCGAAUUUUCGGCGGAUGCCUCCAAA [G13U A42C G44C] | < 1e-05 | < 1e-05 | – | –
AUAAAAGCGCCUGAACUACAGAAAUGUAGUUGACUAGGAGGAGGUUUAUCGAAUUUUCGGCGGAUGCCUCCAAA [A12U G35U] | < 1e-05 | – | – | –
AUAAAAGCGCCUGAACUACAGAAAUGUAGUUGACGAGGCGGUGGUUUAUCGAAUUUUCGACGGAUGCCUCCAAA [A12U A39C A42U G60A] | < 1e-05 | – | – | –
AUAAAAGCGCCUGAACUACAGAAAUGUAGUUGACGAGAAGGAGGUUAAUCGAAUUUUGGGCGGAUGCCUCCAAA [A12U G38A U47A C58G] | < 1e-05 | < 1e-05 | – | –
AUAAAAGCGCCUGAACUACAGAAAUGUAGUUGACGAGGAGGAGGUCUAUCGAAUUUUCGGGCGAUGCCUCCAAA [A12U U46C C61G G62C] | < 1e-05 | – | – | –
AUAAAAGCGCCAACACUACAGAAAUGUAGUUGACGAGGAGGGGGUUUAUCGAAUUUUCGGCGGAUGCCUUCAAA [G13A A14C A42G C70U] | 4.53e-05 ± 1.8e-05 | 9.61e-05 ± 1.4e-05 | – | –
AUAAAAGCGCCAAAACUACAGAAAUGUAGUUGACGAGGAGGAGGUUUAUCGAAUUUUCGGCGGAUGCCUUCAAA [G13A C70U] | 0.000154 ± 1.7e-05 | 0.000388 ± 6.1e-05 | 0.000676 ± 9.5e-05 | 7.83e-05 ± 1.4e-05
AUAAAAGCGCCAAAACUACAGAAAUGUAGUUGACCAGGAGGAGGUUUAUCGAAUUUUCAUCGGAUGCAUCCAAA [G13A G35C G59A G60U C68A] | < 1e-05 | < 1e-05 | – | –
AUAAAAGCGCCAUGACUACAGAAAUGUAGUUGACGAGGAGGAGGUUUAACGAAUUUUCGGCGGAUGCCUCCAAA [G13U A14G U49A] | < 1e-05 | – | – | –
AUAAAAGCGCCACAACUACAGAAAUGUAGUUGACGUGGAGGAGGUUUAUCGAAUUUUCGGCGGAUGCCUCUAAA [G13C A36U C71U] | < 1e-05 | < 1e-05 | – | –
AUAAAAGCGCCAAAACUACAGAAAUGUAGUUGAGGAGGAGGAGGUUUAUCGAAUUUUCGGCGGAUGCCUCCAAA [G13A C34G] | < 1e-05 | < 1e-05 | < 1e-05 | –
AUAAAAGCGCCAUUACUACAGAAAUGUAGUUGACGAGGAGGAGCUUUAUCGGAUUUUGGGCGGAUGCCUCCAAA [G13U A14U G44C A52G C58G] | < 1e-05 | – | – | –
AUAAAAGCGCCUGAACUACAGAAAUGUAGUUGACGAGGAGGAGGUUUAUCGAAUUUUAGUCGGAUGCCUCCAAA [A12U C58A G60U] | < 1e-05 | – | – | < 1e-05
AUAAAAGCGCCUGAACUACAGAAAUGUAGUUGACGACGAGGCGGUUUAUCGAAUUUUCGGCGGAUGCCUCCAAA [A12U G37C A42C] | < 1e-05 | – | < 1e-05 | –
AUAAAAGCGCCUGAACUACAGAAAUGUAGUUGACGAGGAGGUGGUUUAUCAAAUUUUCGGCGGAUGCCUCCAAA [A12U A42U G51A] | < 1e-05 | < 1e-05 | – | –
AUAAAAGCGCCUGAACUACAGAAAUGUAGUUGACCAGGAGGAGGUUUAUCGAAUUUUCGGCGGAUGCCUUCAAA [A12U G35C C70U] | < 1e-05 | < 1e-05 | – | –
AUAAAAGCGCCAAAACUACAGAAAUGUAGUUGACGUGCAGGAGGUUUAUCGAAUUUUCGGCGGAUGCCUCCAAA [G13A A36U G38C] | < 1e-05 | – | – | –
AUAAAAGCGCCAUAACUACAGAAAUGUAGUUGACGAGGAGGAGGUUUAUCGAAUUUUCGGCGGGUGCCUCGAAA [G13U A64G C71G] | < 1e-05 | – | – | –
